Drawing on paper PMC4729865, this text covers binding for one molecule.

No constants are given. Whether binding was seen depends on the method and setting. Binding seen in cells or lysates may run through a third protein. Some results given as binding are weak or reduced against the parent protein; the word gives no strength. Tags and fused reporters may be left off the sequences shown.

In the assay the target is T1, Cep57, exogenous (tag shown only in the figures) (human) (UniProt Q86XR8).
T1 sequence: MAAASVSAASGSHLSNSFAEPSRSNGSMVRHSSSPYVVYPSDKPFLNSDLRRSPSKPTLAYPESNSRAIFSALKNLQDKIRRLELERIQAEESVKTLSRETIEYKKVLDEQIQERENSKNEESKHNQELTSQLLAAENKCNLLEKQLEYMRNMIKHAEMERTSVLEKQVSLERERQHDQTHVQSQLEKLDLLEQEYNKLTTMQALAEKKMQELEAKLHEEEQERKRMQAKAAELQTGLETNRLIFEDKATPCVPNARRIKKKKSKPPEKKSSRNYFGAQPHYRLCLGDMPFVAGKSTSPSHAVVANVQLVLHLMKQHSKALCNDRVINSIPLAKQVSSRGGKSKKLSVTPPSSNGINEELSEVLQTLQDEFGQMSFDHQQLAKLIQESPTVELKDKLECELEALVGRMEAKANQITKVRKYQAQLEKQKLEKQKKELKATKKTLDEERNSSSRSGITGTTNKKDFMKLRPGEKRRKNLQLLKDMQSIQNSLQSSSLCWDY
Nature of the assay: co-IP; lysates of co-transfected HEK293T cells (150 mM NaCl, 1 mM MgCl2, 50 mM Hepes pH 7.4, 1 mM EGTA, 0.5% Triton X-100); antibody 4 h at 4 °C, protein A-Sepharose 2 h; western blotting. Background: In western blotting, separated proteins are transferred to a membrane and probed.

B1: Mad1, exogenous (tag shown only in the figures) (protein, UniProt Q9Y6D9 1-718)
chain: MEDLGENTMVLSTLRSLNNFISQRVEGGSGLDISTSAPGSLQMQYQQSMQLEERAEQIRSKSHLIQVEREKMQMELSHKRARVELERAASTSARNYEREVDRNQELLTRIRQLQEREAGAEEKMQEQLERNRQCQQNLDAASKRLREKEDSLAQAGETINALKGRISELQWSVMDQEMRVKRLESEKQELQEQLDLQHKKCQEANQKIQELQASQEARADHEQQIKDLEQKLSLQEQDAAIVKNMKSELVRLPRLERELKQLREESAHLREMRETNGLLQEELEGLQRKLGRQEKMQETLVGLELENERLLAKLQSWERLDQTMGLSIRTPEDLSRFVVELQQRELALKDKNSAVTSSARGLEKARQQLQEELRQVSGQLLEERKKRETHEALARRLQKRVLLLTKERDGMRAILGSYDSELTPAEYSPQLTRRMREAEDMVQKVHSHSAEMEAQLSQALEELGGQKQRADMLEMELKMLKSQSSSAEQSFLFSREEADTLRLKVEELEGERSRLEEEKRMLEAQLERRALQGDYDQSRTKVLHMSLNPTSVARQRLREDHSQLQAECERLRGLLRAMERGGTVPADLEAAAASLPSSKEVAELKKQVESAELKNQRLKEVFQTKIQEFRKACYTLTGYQIDITTENQYRLTSLYAEHPGDCLIFKATSPSGSKMQLLETEFSHTVGELIEVHLRRQDSIPAFLSSLTLELFSRQTVA
On to B1, for which the binding result was “binds”.
